The record followed here is the supplement of paper PMC5919970.

Counter-ions that a name gives are not always drawn. Over roughly 2,000 compounds, “fractional viability relative to vehicle” has its median near 0.92; the lowest 2% begin near 0.11. This is one part of the list.

The subject of this experiment is TYKNU. Put plainly: fractional viability relative to vehicle; TYKNU is a high-grade serous ovarian cancer line; higher = less growth inhibition. The note with it: 72 h, genotype: OPA1 knockout (sgOPA1 #2). The method, boiled down: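 TYKNU control cells or lentiCRISPRv2 knockout derivatives were seeded at 500 cells per well into drug-stamped 384-well plates holding a ~2100-compound library at 2 or 10 μM, in duplicate. Cells were grown at 37 °C in 5% CO2 in RPMI 1640 with 10% FBS, and drug treatment lasted 72 h. Viability was read by Cell Titer Glo luminescence. Duplicate treatment wells were averaged and normalised to duplicate control wells from the same plate position.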

On to `COc1ccc(-c2coc3cc(O)cc(O)c3c2=O)cc1` [Biochanin A], for which the fractional viability was 0.959 (2uM) and 0.872 (10uM).

On to `COc1ccccc1N1CCN(CCN2C(=O)CC3(CCCC3)CC2=O)CC1`, for which the fractional viability by setting is: (2uM) 1.11; (10uM) 0.848.

As to `OCC(O)CN1CCN(c2ccccc2)CC1` (centres undefined) [Dropropizine], the fractional viability (2uM) came out at 1.09 and the fractional viability (10uM) stood at 0.815.

`CN(C)CCC(c1ccc(Cl)cc1)c1ccccn1` (centres undefined) [Chlorpheniramine Maleate] registered a fractional viability (2uM) of 0.939 and a fractional viability (10uM) of 1.07.

On to `COC1(c2sc3c(N4CCOCC4)nc(-c4cnc(N)nc4)nc3c2C)COC1`, for which the fractional viability runs as follows: (2uM) 0.326; (10uM) 0.324.

As to `CCOC(=O)C1=C(C)NC(C)=C(C(=O)OC)C1c1cccc([N+](=O)[O-])c1` (centres undefined) [Nitrendipine], the fractional viability came to 1.17 (2uM) and 0.89 (10uM).

Consider `Fc1ccc2[nH]ccc2c1-c1nc(N2CCOCC2)c2sc(CN3CCN(CC4CC4)CC3)cc2n1`, for which the fractional viability reads like this: (2uM) 0.878; (10uM) 0.55.

With `CC(CN1c2ccccc2Sc2ccccc21)N(C)C` (centres undefined) [Promethazine HCl], the fractional viability is 1.11 (2uM) and 0.917 (10uM).

`CNC(=O)c1ccccc1Sc1ccc2c(/C=C/c3ccccn3)n[nH]c2c1` [Axitinib] had a fractional viability (2uM) of 1.08 and a fractional viability (10uM) of 0.832.

Regarding `Cc1ccc(NC(=O)Nc2cc(C(F)(F)F)ccc2F)cc1Nc1ccc2c(c1)NC(=O)/C2=C\c1ccc[nH]1`, the fractional viability by setting is: (2uM) 0.83; (10uM) 0.932.

Take `CCOc1cc(N2CCC(O)CC2)ccc1Nc1ncc2c(n1)N(C)c1ccccc1C(=O)N2C`: the fractional viability reads like this: (2uM) 0.911; (10uM) 0.683.

`O=C(c1ccc(OCCN2CCCCC2)cc1)c1c(-c2ccc(O)cc2)sc2cc(O)ccc12` [Raloxifene HCl]: the fractional viability runs as follows: (2uM) 1.1; (10uM) 1.03.

`CNC(=O)c1ccc(N2C(=S)N(c3cnc(C#N)c(C(F)(F)F)c3)C(=O)C23CCC3)cc1F`: the fractional viability worked out at 1.4 (2uM) and 0.95 (10uM).

For the molecule `O=C(Nc1cccc(Cl)c1)Nc1ncc(CCNc2ncnc3ccsc23)s1` [SNS-314 Mesylate], the fractional viability runs as follows: (2uM) 1.21; (10uM) 1.09.

Consider `Nc1ncnc2c1c(-c1cccc(OCc3ccccc3)c1)cn2C1CC(CN2CCCC2)C1` (centres undefined), for which the fractional viability came out at 0.947 (2uM) and 0.248 (10uM).

Regarding `CN1CCN(c2ccc(C(=O)Nc3n[nH]c4ccc(Cc5cc(F)cc(F)c5)cc34)c(NC3CCOCC3)c2)CC1` [Entrectinib (RXDX-101)], the fractional viability reads like this: (2uM) 0.712; (10uM) 0.113.

Turning to `CCc1c(C(=O)NCCc2ccc(N3CCCCC3)cc2)[nH]c2ccc(Cl)cc12`, the fractional viability reads like this: (2uM) 0.832; (10uM) 1.09.

Turning to `CNC(=O)CN1CCC(Oc2cc3c(Nc4cccc(Cl)c4F)ncnc3cc2OC)CC1` [AZD8931 (Sapitinib)], the fractional viability came out at 0.982 (2uM) and 1.18 (10uM).

For the molecule `CCCS(=O)(=O)Nc1ccc(F)c(C(=O)c2c[nH]c3ncc(Cl)cc23)c1F`, the fractional viability reads like this: (2uM) 1.24; (10uM) 0.877.

The molecule `CCN1CCCC1CNC(=O)c1cc(S(=O)(=O)CC)c(N)cc1OC` (centres undefined) [Amisulpride] came in with a fractional viability (2uM) of 1.28 and a fractional viability (10uM) of 0.983.

With `Nc1nc(N)nc(-c2cc(Cl)ccc2Cl)n1` [Irsogladine], the fractional viability by setting is: (2uM) 0.936; (10uM) 0.995.

Molecule `CC1CCc2cc(F)cc3c(=O)c(C(=O)O)cn1c23` (centres undefined) [Flumequine] had a fractional viability (2uM) of 0.845 and a fractional viability (10uM) of 0.926.

Take `C[C@@H](O)[C@H]1C(=O)N2C(C(=O)OCOC(=O)C(C)(C)C)=C(SC3CN(C4=NCCS4)C3)[C@H](C)[C@H]12` [Tebipenem Pivoxil]: the fractional viability runs as follows: (2uM) 1.11; (10uM) 0.951.

As to `CCCCOc1ccc(OCCCN2CCOCC2)cc1` [Pramoxine HCl], the fractional viability turned out to be 1.14 (2uM) and 1 (10uM).

As to `COc1c(O)cc2c(c1O)[C@@H]1O[C@H](CO)[C@@H](O)[C@H](O)[C@H]1OC2=O` [Bergenin], the fractional viability was found to be 1.18 (2uM) and 0.976 (10uM).

In turn, `Nc1cccc(-c2cc3c(Oc4cccc(O)c4)ncnc3[nH]2)c1` registered a fractional viability (2uM) of 1.38 and a fractional viability (10uM) of 0.937.

Regarding `CC(C)[C@H]1CC[C@H](C(=O)N[C@H](Cc2ccccc2)C(=O)O)CC1` [Nateglinide], the fractional viability by setting is: (2uM) 0.956; (10uM) 0.914.

As for `COc1ccc(-n2nc(C(N)=O)c3c2C(=O)N(c2ccc(N4CCCCC4=O)cc2)CC3)cc1` [Apixaban], the fractional viability stood at 1.03 (2uM) and 1.14 (10uM).

In the case of `COc1ccc(C(C)=O)c(O)c1` [Paeonol], the fractional viability is, setting by setting: (2uM) 1.19; (10uM) 0.933.

Take `COc1ccccc1OCCNCC(O)COc1cccc2[nH]c3ccccc3c12` (centres undefined) [Carvedilol]: the fractional viability by setting is: (2uM) 0.985; (10uM) 0.674.

Consider `CC(C)c1nc(CN(C)C(=O)N[C@H](C(=O)N[C@@H](Cc2ccccc2)C[C@H](O)[C@H](Cc2ccccc2)NC(=O)OCc2cncs2)C(C)C)cs1` [Ritonavir], for which the fractional viability reads like this: (2uM) 1.05; (10uM) 1.02.

Turning to `Cc1nc2ccc(-n3ncc(C(=O)c4cc5ccccc5[nH]4)c3N)cc2[nH]1`, the fractional viability was determined as 0.778 (2uM) and 0.938 (10uM).

For `CCCCC(=O)O[C@H]1CC[C@H]2[C@@H]3CCc4cc(O)ccc4[C@H]3CC[C@]12C` [Estradiol valerate], the fractional viability stood at 1.04 (2uM) and 0.369 (10uM).

In the case of `N#Cc1c(O)c2c(-c3ccc(-c4ccccc4O)cc3)csc2[nH]c1=O`, the fractional viability was determined as 1.07 (2uM) and 1.07 (10uM).

Turning to `N=C(N)c1ccc(OCCCCCOc2ccc(C(=N)N)cc2)cc1` [Pentamidine], the fractional viability was found to be 0.854 (2uM) and 0.621 (10uM).

With `Cc1[nH]c2ccccc2c1CCNC(=O)c1cccs1`, the fractional viability runs as follows: (2uM) 0.809; (10uM) 0.942.

For the molecule `O=c1cc(-c2cccc3c2Sc2ccccc2S3)oc(N2CCOCC2)c1`, the fractional viability worked out at 1.25 (2uM) and 1.2 (10uM).
